Some of the results follow. These are further read-outs of the screen, such as a control signal, another cell line or another target. No call is given for them.
Experiment: enhancers of HSV replication in host cells, fold increase, host cell viability (AID 1956); note: tested in PC3 cells
Details: HSV replication augmentation in cells; fold increase: measured here: primary screen fold increase 10 uM, at 10 µM, stronger effect = higher value; viability: measured here: host cell viability series, at 25 µM, stronger effect = lower value

Row | Structure (SMILES) | fold increase | viability
1 | CCc1ccc(CC2S/C(=C(\C#N)C(C)=O)NC2=O)cc1 (stereo not drawn) | 1.46 | 87.5%
2 | O=C(OCCN1C(=O)c2cccc3c(N4CCOCC4)ccc(c23)C1=O)c1cccc(Cl)c1 | 8.37 | 61.2%
3 | O=S(=O)(Nc1ccccc1)c1ccc2c(c1)CCO2 | 1.32 | –
4 | N#CC1=C(N)SC(N)=C(C#N)C1c1ccc(C(F)(F)F)cc1 | 1.86 | 96.6%
5 | CC[N+]1=C(C)C(C)(C)c2cc(C)ccc21 | 1.32 | –
6 | CCCOc1ccc(CC(=O)NNC(=S)Nc2ccccc2)cc1Br | 1.34 | –
7 | NC(=O)N/N=C/c1c(O)ccc2oc3c(c12)CCCC3 | 1.37 | 107%
8 | COc1cc(/C=C(\C#N)c2ccccn2)cc(OC)c1O | 9.03 | 72%
9 | COc1ccc(C)cc1NC(=O)COC(=O)c1ccc([N+](=O)[O-])o1 | 1.33 | 93.7%
10 | COc1ccc(Cn2ccnc2CO)cc1[N+](=O)[O-] | 1.56 | 92.4%
11 | COc1ccc(-n2c(C)cc(/C=C3/SC(=S)N(C)C3=O)c2C)cc1 | 1.74 | 92.7%
12 | CCOc1ccc(N2C(=O)S/C(=C\c3ccc(O)c(OC)c3)C2=O)cc1 | 1.73 | 96.3%
13 | CN1C(=O)/C(=C/c2coc3ccc(O)cc3c2=O)SC1=S | 1.45 | 102%
14 | Cc1cc(SCC(=O)c2ccccc2)n2nc(C)nc2n1 | 1.49 | 89%
15 | CCN(CC)C1=CC2=CC(=C(C#N)C#N)CCC2CC1 (stereo not drawn) | 6.36 | 93.5%
16 | CC(=O)Nc1nc2n(n1)C(c1ccc(F)cc1)C=C(c1ccccc1)N2 (stereo not drawn) | 1.16 | 97.6%
17 | COC(=O)c1ccc(N)c(N=CC2=C(O)CC(C)(C)CC2=O)c1 | 2.04 | 90.5%
18 | CCOC(=O)/C(C#N)=C\C=C1C=CN(C)C=C1 | 1.48 | 89%
19 | Cc1onc(-c2ccccc2)c1C(=O)c1ccccc1 | 1.38 | 95.6%
20 | Cc1ccc(S(=O)(=O)Oc2ccc(/C=C(/NC(=O)c3ccccc3)C(=O)Nc3ccccc3)cc2)cc1 | 1.11 | –
21 | Cc1cc(S(=O)(=O)N2CCN(c3c(C)cccc3C)CC2)ccc1F | 1.43 | 97.5%
22 | COc1ccc2nc(NC(=O)CCN3C(=O)c4ccccc4C3=O)sc2c1 | 1.33 | 98.1%
23 | CN1/C(=C/C=C(C#N)C#N)C(C)(C)c2ccccc21 | 3.76 | 101%
24 | N#Cc1c(N)sc(=S)c2c1CCN(Cc1ccccc1)C2 | 1.4 | –
25 | COc1ccccc1-n1c(C)c2c(OC)cccc(=O)c2c1C | 1.35 | 102%
26 | CN(C)S(=O)(=O)Nc1ccc2c(c1)OCO2 | 1.38 | 91.9%

Row | Structure (SMILES) | fold increase | viability
27 | N=c1c2c(-c3ccccc3)c(-c3ccccc3)n(Cc3ccco3)c2ncn1CCO | 1.03 | –
28 | Nc1nc(=S)[nH]c2c1C1(CCCC1)Cc1ccccc1-2 | 1.32 | –
29 | COc1cccc2c1C(=O)C=C(C)C2=O | 7.39 | –
30 | CC1CCc2nn(CC(=O)N3CCc4ccccc43)cc2C1 (stereo not drawn) | 1.39 | 94.9%
31 | Cc1c(Cl)cccc1NC(=S)NCCC(c1ccccc1)c1ccccc1 | 1.29 | –
32 | CC(C)(C)c1ccc(C(=S)N2CCN(c3ccccc3)CC2)cc1 | 1.37 | 95%
33 | N#C/C(=C\C1=C(N2CCOCC2)C(=C\c2ccccc2)/CC1)C(=O)Nc1ccccc1F | 1.68 | 88.2%
34 | COc1cccc(C2C(C#N)=C(N)Oc3c2oc(CO)cc3=O)c1 (stereo not drawn) | 1.47 | 2.73%
35 | O=c1[nH]c2ccccc2nc1/C=C(\O)c1cccs1 | 3.59 | –
36 | Nc1c(C(=O)Nc2ccc(S(=O)(=O)N3CCCC3)cc2)sc2nc3ccc(OC(F)(F)F)cc3cc12 | 1.33 | 17.1%
37 | O=C(N/N=C/c1cc([N+](=O)[O-])ccc1O)C12CC3CC(CC(C3)C1)C2 | 1.58 | 106%
38 | CCOc1ccc2nc(NC(=O)CCC(=O)c3cccs3)sc2c1 | 1.23 | –
39 | c1coc(CSc2ncnc3c2oc2ccccc23)c1 | 1.43 | 99.6%
40 | COc1ccccc1N1C(C)=CC(=C(C#N)c2nc3ccccc3s2)C=C1C | 1.59 | –
41 | Cn1cnnc1SCC(=O)Nc1cccc(S(=O)(=O)N2CCCCCC2)c1 | 1.34 | 91.6%
42 | COc1ccccc1/C=C/C=C1\Oc2c(ccc(O)c2CN(C)C)C1=O | 2.84 | 90.9%
43 | N#CC(C#N)=C1C=C2C=C(N3CCOCC3)CCC2CC1 (stereo not drawn) | 6.82 | 91.8%
44 | O=C(c1cc2n(n1)C(C(F)(F)F)CC(c1ccco1)N2)N1CCc2ccccc2C1 (stereo not drawn) | 1.32 | 77.7%
45 | Cn1c(=O)c2c(ncn2Cc2ccc(Cl)cc2)n(C)c1=O | 1.74 | 83.6%
46 | O=c1cc(N2CCCCC2)c(-c2ccccc2)nn1Cc1c(Cl)cccc1Cl | 1.4 | 76.2%
47 | CC(Cc1ccccc1)C(=O)Nc1ccccc1 (stereo not drawn) | 1.32 | –
48 | Fc1ccc(-n2nnc(-c3ncc[nH]3)n2)cc1 | 1.43 | 91%
49 | O=c1/c(=C\c2ccc(O)cc2)sc2n1C(c1ccccc1)C(c1ccccc1)=NN=2 (stereo not drawn) | 1.15 | –
50 | CC(=O)c1sc(N/N=C\c2ccccc2O)nc1C | 3.08 | 90.4%
51 | CCN(C(C)=O)c1nc(CCl)cs1 | 1.38 | 100%

From PubChem BioAssay AID1956 (SRMLSC, 2009)
